From PubChem BioAssay AID1347165 (National Center for Advancing Translational Sciences (NCATS), 2019)
The campaign covered roughly 220,000 compounds. About 5,700 (2.6%) were called active. Inconclusive results, whose numbers are uncertain, are shown with a selection of clear calls. Calls come from the whole dose curve; as a rule, active = well fitted inhibition curve with a large enough effect; inconclusive = small, poorly fitted or top-dose-only effect; inactive = no such curve, though single readings can be large or run the other way. A potency beside an inconclusive call is a rough fit, not a confirmed value.
Note: nearly all actives have a fitted effect of over 70% in size.
Potency is the fitted concentration of half-maximal effect; tags give direction and shape of the fitted curve.
Throughout, for activity change, negative = inhibition: 0% is about no effect.

The molecules below were run against Lysine-specific demethylase 5B (Homo sapiens) (UniProt Q9UGL1) (assay: Primary screen for KDM5B Histone Demethylases FDH-coupled qHTS). Conditions: FDH-coupled NADH fluorescence (FDH is formaldehyde dehydrogenase); activity change, negative = inhibition: at 57.7 µM (top of the series) unless noted.
Sequence of UniProt Q9UGL1 (Q9UGL1 whole entry, looked up): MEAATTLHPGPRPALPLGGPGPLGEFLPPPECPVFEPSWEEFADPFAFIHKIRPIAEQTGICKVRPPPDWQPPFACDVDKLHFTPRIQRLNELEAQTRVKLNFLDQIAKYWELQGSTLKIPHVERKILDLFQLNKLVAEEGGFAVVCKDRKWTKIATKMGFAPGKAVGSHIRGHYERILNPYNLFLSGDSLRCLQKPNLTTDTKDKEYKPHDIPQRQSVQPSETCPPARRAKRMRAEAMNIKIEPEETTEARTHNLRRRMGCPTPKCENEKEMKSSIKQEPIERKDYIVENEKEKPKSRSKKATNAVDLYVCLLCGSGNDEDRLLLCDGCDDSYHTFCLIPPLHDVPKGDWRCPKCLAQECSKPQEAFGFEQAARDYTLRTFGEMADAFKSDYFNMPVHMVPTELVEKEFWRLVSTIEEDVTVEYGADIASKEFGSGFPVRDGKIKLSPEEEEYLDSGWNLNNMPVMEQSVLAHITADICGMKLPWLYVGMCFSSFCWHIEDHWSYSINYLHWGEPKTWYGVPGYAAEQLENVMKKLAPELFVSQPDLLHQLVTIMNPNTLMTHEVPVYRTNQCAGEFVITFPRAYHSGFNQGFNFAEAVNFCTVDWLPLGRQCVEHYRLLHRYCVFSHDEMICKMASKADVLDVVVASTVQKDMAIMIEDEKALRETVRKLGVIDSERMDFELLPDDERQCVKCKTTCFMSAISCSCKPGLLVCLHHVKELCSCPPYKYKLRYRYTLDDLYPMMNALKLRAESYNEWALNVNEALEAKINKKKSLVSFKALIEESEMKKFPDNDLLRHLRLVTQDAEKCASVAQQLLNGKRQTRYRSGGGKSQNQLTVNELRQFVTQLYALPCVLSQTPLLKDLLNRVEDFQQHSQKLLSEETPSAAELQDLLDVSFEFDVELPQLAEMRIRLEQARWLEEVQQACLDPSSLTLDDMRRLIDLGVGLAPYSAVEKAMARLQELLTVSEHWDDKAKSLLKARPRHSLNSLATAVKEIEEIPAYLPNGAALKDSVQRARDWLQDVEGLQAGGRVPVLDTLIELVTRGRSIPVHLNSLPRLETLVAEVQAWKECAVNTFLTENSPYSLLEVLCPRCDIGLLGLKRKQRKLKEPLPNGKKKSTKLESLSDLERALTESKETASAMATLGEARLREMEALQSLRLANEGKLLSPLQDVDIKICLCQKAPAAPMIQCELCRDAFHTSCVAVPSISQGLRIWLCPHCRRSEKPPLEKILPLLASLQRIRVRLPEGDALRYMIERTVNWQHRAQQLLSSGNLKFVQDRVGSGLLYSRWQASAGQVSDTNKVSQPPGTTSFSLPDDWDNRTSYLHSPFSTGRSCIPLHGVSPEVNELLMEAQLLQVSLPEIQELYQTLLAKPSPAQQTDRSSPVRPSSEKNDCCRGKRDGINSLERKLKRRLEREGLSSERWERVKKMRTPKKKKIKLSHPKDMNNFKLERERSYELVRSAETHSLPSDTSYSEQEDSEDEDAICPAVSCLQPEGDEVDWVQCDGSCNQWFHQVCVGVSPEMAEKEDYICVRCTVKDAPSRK
Procedure, shortened: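 Coupled FDH/NAD⁺ fluorescence readout. KDM5BΔAP 200 nM final; compound titration, 10 min RT preincubation; substrate mix 12.5 µM H3K4me3, 25 µM 2-OG, 50 µM Fe(II), 100 µM ascorbate, 0.25 mM NAD⁺, 0.25 U/mL FDH; ΔRFU over 30 min.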
With `CCOc1ccccc1CNC(=O)c1cnc2sc(N3CCOCC3)nn2c1=O` the Potency was inconclusive: 1.58 µM [inhibitor, full curve, poor fit]. For `c1cncc(-c2noc(C3CCCN(Cc4cc5n(n4)CCNC5)C3)n2)c1` (stereo unspecified), the Potency was inconclusive: 31.6 µM [inhibitor, single point]. `O=C(CSc1nnnn1-c1ccccc1)Nc1ccccc1C(=O)O` was tested, and the “activity change, negative = inhibition” value was inactive: 5.87%. With `COC(=O)c1ccc2c(c1)N(Cc1ccc(F)cc1Cl)C(=O)c1ccccc1S2(=O)=O` the “activity change, negative = inhibition” value was inactive: 3.39%. For `CN(C)c1ccc2ncc(Nc3ccc(Oc4ccccc4)cc3)n2n1`, the “activity change, negative = inhibition” value was inactive: -12.5% [at 86.2 µM]. For `CCCNC(=O)c1cc2cc(OCC)ccc2n1C`, the Potency was inconclusive: 1.78 µM [inhibitor, full curve, poor fit]. With `Cc1cccc(N2CC(C(=O)Nc3cc(Cl)ccc3-n3cncn3)CC2=O)c1C` (stereo unspecified) the “activity change, negative = inhibition” value was inactive: 9.54%. For `COc1cccc(NC(=O)c2ccc3c(c2)NC(C)(CNc2ccccc2)CO3)c1` (stereo unspecified), the Potency was active: 12.6 µM. For `Cc1ccc(NS(=O)(=O)c2ccc3[nH]c4c(c3c2)CCCCCC4)cc1`, the Potency was inconclusive: 28.2 µM [inhibitor, partial curve, poor fit]. With `Cc1cccc(-c2ccc3c(c2)C(=O)N2CC[C@H](NC(=O)c4cccs4)[C@H]2C(=O)N3)c1C` the “activity change, negative = inhibition” value was inactive: -9.35%. For `N#Cc1ccc(NC2=NS(=O)(=O)c3ccccc32)cc1`, the Potency was inconclusive: 17.8 µM [inhibitor, partial curve, poor fit]. For `CCOC(=O)C(NC(=O)/C=C/c1c(Cl)cccc1Cl)C(=O)OCC`, the “activity change, negative = inhibition” value was inactive: 25.9%. With `O=C(CCC1CCCC1)N1CCC(Cc2nc(C3CC3)n[nH]2)CC1` the Potency was inconclusive: 10 µM [inhibitor, partial curve]. In the case of `CCN(CC)CCCNc1nc(-n2nc(C)cc2C)nc2sc3c(c12)CC(C)(C)OC3`, the Potency is reported as inconclusive: 31.6 µM [inhibitor, partial curve, poor fit]. In the case of `Cc1ccc(NC(=O)c2ccc(-n3cnc(NC(=O)C(C)C)c3)cc2)cc1C`, the Potency is reported as inconclusive: 39.8 µM [inhibitor, single point]. In the case of `CN1CCC(NC(=O)c2ccc3c(c2)n(Cc2ccc(F)cc2)c(=O)c2ccnn23)CC1`, the Potency is reported as active: 28.2 µM. In the case of `Cc1ccc(NC(=O)c2cc3n(n2)CC(c2ccc4c(c2)OCO4)OC3)cc1Cl` (stereo unspecified), the Potency is reported as active: 28.2 µM. With `COc1ccc(-c2nc(C3CC(=O)N(c4ccc(F)cc4)C3)no2)c(OC)c1` (stereo unspecified) the Potency was inconclusive: 22.4 µM [inhibitor, single point]. In the case of `Cn1cc(CN2CC[C@H](c3nc4ccccc4[nH]3)C2)c2ccccc21`, the Potency is reported as inconclusive: 25.1 µM [inhibitor, single point]. With `CCOC(=O)C[C@@H]1C[C@@H](C(C)C)[C@H](CNC(=O)C2CC2)C=C1C` the “activity change, negative = inhibition” value was inactive: -8.16% [at 86.2 µM]. With `COc1ccccc1-c1cc(C(=O)N2CCCC2)c2cnn(C)c2n1` the “activity change, negative = inhibition” value was inactive: -12.3% [at 149 µM]. In the case of `C=CCc1ccc(OCc2ccc(C(=O)Nc3ccc(NC(C)=O)cc3)o2)c(OC)c1`, the Potency is reported as inconclusive: 39.8 µM [inhibitor, single point]. For `CCCCc1noc(CN2CCc3cc(OC)c(OC)cc3C2CC(=O)OC)n1` (stereo unspecified), the “activity change, negative = inhibition” value was inactive: 31.7%. For `Cc1nc2sc(C#N)c(N)c2c(C)c1Cl`, the Potency was inconclusive: 14.1 µM [inhibitor, single point]. For `CCCCC(=O)Nc1ccc2nc(N3CCN(C(=O)OCC)CC3)cc(C(=O)O)c2c1`, the Potency was inconclusive: 25.1 µM [inhibitor, partial curve, poor fit]. With `CCn1c(=NC(=O)c2ccc(S(=O)(=O)N3CCCC3)cc2)sc2cc(Br)ccc21` the Potency was inconclusive: 1.41 µM [inhibitor, partial curve, poor fit]. For `COC(=O)c1sc2nc(N3CCOCC3)c3c(c2c1N)CCN(C)C3`, the Potency was inconclusive: 22.4 µM [inhibitor, partial curve, poor fit]. With `CC(C)c1ccc(NC(=O)c2ccc(Cn3nc(N4CCN(c5ccccc5)CC4)ccc3=O)o2)cc1` the Potency was inconclusive: 0.794 µM [inhibitor, partial curve, poor fit]. `CN1c2cc(C(=O)NC3CCCCC3)ccc2C(=O)N2CCCCCC21` (stereo unspecified) was tested, and the Potency was inconclusive: 22.4 µM [inhibitor, partial curve, poor fit]. `CN(C)Cc1ccc(-c2cc(-c3ccncc3)c3cncn3c2)cc1` was tested, and the Potency was inconclusive: 39.8 µM [inhibitor, partial curve, poor fit]. For `O=C(NCc1c[nH]c2ncccc12)c1ccc(F)cc1`, the Potency was inconclusive: 10 µM [inhibitor, partial curve]. `O=C1NCCCCCCN(Cc2ccncc2)[C@@H]2CN(C(=O)c3ccncc3)CC[C@@H]12` was tested, and the Potency was inconclusive: 25.1 µM [inhibitor, partial curve, poor fit]. In the case of `CCCCn1nnnc1CSc1nnc(-c2ccccc2)n1-c1ccc(F)cc1`, the “activity change, negative = inhibition” value is reported as inactive: -5.32%. In the case of `COc1ccc(-c2nc(C)nc3c2CN(C(=O)c2ccc(C(F)(F)F)cc2)CC3)cc1`, the Potency is reported as inconclusive: 20 µM [inhibitor, partial curve, poor fit]. In the case of `Cn1c(C(=O)Nc2cccc3cccnc23)c(Cl)c2ccccc21`, the Potency is reported as inconclusive: 20 µM [inhibitor, partial curve, poor fit]. `CCCCn1c(N)c(N(CCOC)C(=O)c2ccc(-c3ccc(Cl)cc3)o2)c(=O)[nH]c1=O` was tested, and the Potency was inconclusive: 14.1 µM [inhibitor, partial curve, poor fit]. For `Cc1ccc2c(n1)N(C)[C@H](CO)CCN(Cc1cccc(Cl)c1)C2`, the Potency was inconclusive: 31.6 µM [inhibitor, single point]. `CC(C)(C)c1cc(C=O)c(O)c(C(C)(C)C)c1` was tested, and the “activity change, negative = inhibition” value was inactive: 10.3%. For `CCCOc1cccc(-c2cc(C(=O)OC)c3ccccc3n2)c1`, the Potency was inconclusive: 14.1 µM [inhibitor, partial curve, poor fit]. In the case of `COc1ccc(S(=O)(=O)NCC(=O)O)c2ccccc12`, the Potency is reported as inconclusive: 22.4 µM [inhibitor, partial curve, poor fit]. In the case of `CCN(CC)c1ccc(NC(=O)c2cnc3c(-c4ccccc4)c(C)nn3c2C)c(C)c1`, the Potency is reported as inconclusive: 1.41 µM [inhibitor, partial curve, poor fit].
